The source gives no read counts; variants with many changes may rest on few reads.
B1: LINE1-mini (parent)
chain: GGCAGAGCUCAACACAGCGUGGCAAAGUGGCUGUGGCUAGACUGCC

Variants of: B1
Assay: self-cleavage, relative activity (ratio to wild type); higher = more cleavage; in vitro, sequencing; the parent is a self-cleaving ribozyme

| Variant | self-cleavage |
| --- | --- |
| C8A C15U G17U G29C | 0.2 |
| C8G C13U G40A C46U | 0.1 |
| C8G C10A C42A | 0.03 |
| C8G C10A A11G | 0.01 |
| G7U G29A G36A | 0.09 |
| C8A A11G G19U C31U C46A | 0.02 |
| G7U G35U U38G | 0 |
| C8G C13G A14U U28G G35A | 0.14 |
| G7U U28A G29A G30U C42U C45A | 0.27 |
| C8G A11U A24U A25U | 0.04 |
| C8A C13G A16G A25U G33A G35C | 0.05 |
| C8G C10U C15U | 0.05 |
| C8A C15G G17U A25U | 0.21 |
| C8G A25U G29U A39G C45U | 0.1 |
| C8A C13U U43G | 0.29 |
| C8A A24U G36C | 0.08 |
| G7U U9C A16C G19U G36U C46A | 0.04 |
| C8G A16G G19U | 0.04 |
| C8A G17A G35A A39U A41C | 0.52 |
| C8A G29A U34G | 0.28 |
| G7U U9C U43A | 0 |
| C8A A26G U32A | 0.23 |
| C8A C15A A25G U28A | 0.32 |
| C8A G22U G40U | 0.27 |

| Variant | self-cleavage |
| --- | --- |
| C8G C15A G22C | 0.03 |
| C8G C13G C31A U34A G36U | 0.08 |
| C8A A11G G44A C45A | 0.04 |
| C8A U28A G29U G36C | 0.04 |
| C8A A14U C18G G21C | 0.03 |
| C8G A11U C13G G27C | 0.01 |
| C8A C23G G36A G40U | 0.39 |
| C8A C23U U34C C42A | 0.17 |
| C8A G17A U32A A39C U43A | 0.03 |
| C8A C10U C13A G17C G40U | 0.05 |
| C8A G27A C46U | 0.1 |
| C8A U9A A14U C31G | 0.09 |
| C8A A11G A12U C23A C46A | 0 |
| C8A U28A G36A G40U | 0.18 |
| G7U G30C G40C | 0.24 |
| C8G C13G C15U G29A C31A | 0.1 |
| C8G C13U U43C | 0.05 |
| G7U U9A G21U G40U | 0.07 |
| G7U U9A G17C C45U | 0.12 |
| C8G A25U G40U | 0.08 |
| C8G A16G G19U U20A | 0.02 |
| C8G A11C G30A U38C G40U | 0.01 |
| G7U G29A C45A | 0.24 |
| G7U U20A G36A | 0.04 |

| Variant | self-cleavage |
| --- | --- |
| C8G A14U A25C A41G | 0.26 |
| C8A A26U C45U | 0.11 |
| C8G C10G A11C C13A G17U U32C C46U | 0.01 |
| C8A G22A A25G A26C | 0.16 |
| C8G C15U A16G G21U G44A | 0.05 |
| C8G A14U G17U G35C U38G G44U | 0.03 |
| C8A C15A G36A U43G | 0.07 |
| C8A C10G G17C G21C | 0.02 |
| G7U G22U C45U C46A | 0.03 |
| C8G C13A G17U U20A G35A C46U | 0.06 |
| C8A G44U C46U | 0.02 |
| G7U U28A G29C G30C G33C | 0.03 |
| C8G C10U A25C A26U | 0.04 |
| C8G A12U C45G | 0.01 |
| C8A A26G U38A C42A | 0.12 |
| C8A G17C A41C | 0.29 |
| C8A A11C A12G G21C C23A U28C C31U | 0.02 |
| C8G C13G A25C A26U G29A | 0.07 |
| C8A G17A G40U | 0.25 |
| C8G C10G C15U U20A G22C A24U | 0.01 |
| C8A U20C A24C G27U | 0.11 |
| C8A C10U G22U | 0.14 |
| C8A U9C A11G | 0.04 |
| C8G C13G G19A G21U C23A | 0.01 |

| Variant | self-cleavage |
| --- | --- |
| G7U G40A G44A | 0.13 |
| C8A A11U G17U U20C G35C G44U | 0.01 |
| C8A C10A A14G A16U G17C | 0.02 |
| C8A C18A U20A G29A G40C | 0.23 |
| C8A C13A G35A C46A | 0.06 |
| G7U U20G A26C | 0.09 |
| C8A U9A U20C | 0.07 |
| C8A C15G G19A U38C | 0.61 |
| G7U G40U C42G U43A | 0.3 |
| C8A G17U C23G U43A | 0.41 |
| G7U U9A G27A | 0.08 |
| C8A G27U G30A U32C | 0.24 |
| C8A C13A U34A | 0.07 |
| C8A C15G U20C G33A | 0.04 |
| C8A C15U G33A | 0.74 |
| C8G A16G C23G G27A | 0.04 |
| C8A A12U G27C | 0.04 |
| C8A A26G G36A | 0.07 |
| C8A A25C G30A G40U | 0.2 |
| C8A A11G G19U G30C | 0.03 |
| G7U U20A G29C U32C U34C G36C C37A A39C | 0 |
| C8G C10A U34G C37U G44A | 0 |
| C8A A11C G36U | 0.04 |
| C8A A12C G30C | 0 |

| Variant | self-cleavage |
| --- | --- |
| C8A A24U G27U G29C G36U C45U | 0.21 |
| C8A U9G G27U | 0.01 |
| C8A C23A G27A G36U | 0.53 |
| C8A C23A A39C | 1.39 |
| C8A C10A C23G | 0.01 |
| C8G A26C G27C | 0.03 |
| C8A G22U G30C G33C C42A | 0.1 |
| C8A C18G U28G U43G C46A | 0.17 |
| C8A G29U C46U | 0.44 |
| C8A G29U C46A | 0.49 |
| C8A C23U U28C G35U G40U C45A | 0.02 |
| C8G C13A U20C A26G | 0.04 |
| C8A C23A G40U G44C | 0.09 |
| C8A C18G U34A | 0.13 |
| C8G C13A C15A | 0.13 |
| C8A A12U G21A A26U G40U | 0.72 |
| G7U U9C C10U | 0.02 |
| C8G C10G C13U U34G | 0.03 |
| C8G A12U C23A A26G | 0.07 |
| C8A C13U C18A G33U A39U C45A | 0.02 |
| C8G C10U G17U U43A | 0.08 |
| C8A G21U G33C U43A | 0.03 |
| G7U G22U C42U C46G | 0.05 |
| C8A G36U G40C | 0.06 |

| Variant | self-cleavage |
| --- | --- |
| C8A U20A G22A | 0.05 |
| C8A C15A G35C A41U | 0.13 |
| C8A G29U U34C | 0.06 |
| C8A C13U U20C | 0.24 |
| C8A U9A A16G C23G U38G | 0.03 |
| C8A A11C G22U U38G | 0.03 |
| C8G C10A A14C G30A U38C | 0.01 |
| C8A G30U G35C C45A | 0.08 |
| G7U G21U C31G | 0.07 |
| C8A G17A G19A G27C G29U C37A U43A C46G | 0.11 |
| G7U U9A C13G G33A G36U A39U | 0.02 |
| C8A A24U G30U G36U G40U | 0.25 |
| C8A C10A C15U A16U A25G G44A | 0.06 |
| C8A A12G G22C | 0.29 |
| C8A C15A C23G G30A | 0.02 |
| C8A C15G G17A C18A C42A | 0.01 |
| G7U U32C G44U | 0.06 |
| C8A C13G G33U | 0.08 |
| C8G A11U G19A | 0.01 |
| G7U G35A C42A | 0.75 |
| G7U U34C G44A | 0.15 |
| C8A G19C U28C G36U | 0.04 |
| C8A U9C G27U G29A G40U U43G | 0.59 |
| C8G A25U C42A | 0.03 |

| Variant | self-cleavage |
| --- | --- |
| C8A A25C G29C C42A | 0.05 |
| C8A A24G C42U | 0.23 |
| C8A C23A G33C G40C | 0.06 |
| C8A U32C C37A | 0.18 |
| C8G C15G G21C A41U | 0.04 |
| C8A C15U G35C C46A | 0.1 |
| C8A G21C G22U | 0.08 |
| C8A U32A A41U | 0.57 |
| C8G C10A A26U | 0 |
| G7U G35U C45U | 0.02 |
| C8A U9G C15G G35C | 0 |
| C8A A14C A26G G35U C42U | 0.13 |
| C8G C13A U34A | 0.14 |
| C8A G40A C46U | 0.16 |
| C8A C18A G27U U32G | 0.14 |
| C8G A14C U43A | 0.13 |
| C8A C13A C46U | 0.16 |
| C8A C10U G36U U43A | 0.62 |
| C8A C45G C46U | 0.68 |
| C8A C23U G27A C37A | 0.04 |
| C8A C10U A11C U28G C31A | 0.01 |
| C8G A12U C42G | 0.07 |
| C8A C10U U20A G21U U38G | 0.03 |
